# Data reported in the RNAGym collection of RNA variant scans (doi:10.7554/elife.90254).
# Read counts are not given, so values of variants with three or more changes are uncertain.
# B1: LINE1-mini (parent)
# chain: GGCAGAGCUCAACACAGCGUGGCAAAGUGGCUGUGGCUAGACUGCC
# Variants of: B1
# Test: self-cleavage, relative activity (ratio to wild type); higher = more cleavage; in vitro, sequencing; the parent is a self-cleaving ribozyme
row,Variant,self-cleavage
1,GGCAGAGCUCAAAACAACGUGGCAAAGUGGCUGUGGAUAGACUGCC [C13A G17A C37A],0.08
2,GGCAGAGCUCAAAACAGCGAGGCAAAGUGGCUGUGGCUAGACUACC [C13A U20A G44A],0.07
3,GGCAGAGCUCAAAACAGCGUGGCAAUUUGGCUGUGGCUAGACUGCC [C13A A26U G27U],0.01
4,GGCAGAGCUCAAAAAAGCGUGACAAAGUGGCUGUGGCUAGACUGCU [C13A C15A G22A C46U],0.09
5,GGCAGAGCUCAAAACAGCGUGGCAACGUGGCUGUGGCUAGACUGCG [C13A A26C C46G],0.24
6,GGCAGAGCUCAAAACAGCGUGGCAAAGUGUCAGUGGCUAUACUGCC [C13A G30U U32A G40U],0.04
7,GGCAGAGCUCAAAACAGCGCGGCAAAGUGUCUCUGGCUAGACUGCC [C13A U20C G30U G33C],0.17
8,GGCAGAGCUCAAAAUAGCGUCGCAAAGUUGCUGUGGCUAGACUGCC [C13A C15U G21C G29U],0.05
9,GGCAGAGCUCAAAACAUCGUGGCAAAGUGGCUGUGGUUAGACUGGC [C13A G17U C37U C45G],0.09
10,GGCAGAGCUCAAAACAGCGCGACAAAGUGGCUGUGGCUAGACUGCC [C13A U20C G22A],0.34
11,GGCAGAGCUCAAAAUCGCGUGGCAAAGUGGCUGUGGCUAGACUGCC [C13A C15U A16C],0.09
12,GGCAGAGCUCAAAACAGCCUGGCAAAGUGGGUGUGGCUUGACUGCC [C13A G19C C31G A39U],0.08
13,GGCAGAGCUCAAAACAGUGUGGCAAAGUGGCUGUGGCUAGACUGCG [C13A C18U C46G],0.08
14,GGCAGAGCUCAAAACAGCGUGGCAAAUUGGCUGUAGCUAGACUUCC [C13A G27U G35A G44U],0.07
15,GGCAGAGCUCAAAACAGCGUGUCAAAGUGGCUGUUGCUAGAUUGCC [C13A G22U G35U C42U],1.95
16,GGCAGAGCUCAAAACAGCAUGGCAAAGUGGCAGUUGCUAGACUGCC [C13A G19A U32A G35U],0.03
17,GGCAGAGCUCAAAACAGCGUGGCAAACUGGCCGUGGCUAGACCGCC [C13A G27C U32C U43C],0.2
18,GGCAGAGCUCAAAACAGCGUGGCAAAGUGACUGUGCCUAGACUGCC [C13A G30A G36C],0.09
19,GGCAGAGCUCAAAACAGUGUGCCACAGUGACUGUGGCUAGACUGCC [C13A C18U G22C A25C G30A],0.15

row,Variant,self-cleavage
1,GGCAGAGCUCAAAACAGCGUGGCAAAGUGGCUGUGGCUGAACUGCC [C13A A39G G40A],0.01
2,GGCAGAGCUCAAAACAGCGUGGCAAAGAGGCUGUGGCUAGACUUCC [C13A U28A G44U],0.2
3,GGCAGAGCUCAAAACAGCAUUGCAUAGUGGCUGUGGCCAGACUGCC [C13A G19A G21U A25U U38C],0.05
4,GGCAGAGCUCAAAACAGCGUGGGAAAGUGCUUGUGGCUAGACUGCC [C13A C23G G30C C31U],0.06
5,GGCAGAGCUCAAAACAGCGUGGCAAAGUGACUGUGGCUAGACUGUC [C13A G30A C45U],0.08
6,GGCAGAGCUCAAAACAGCGUGGCAAAGUGGCUUUGGCUAGACGGCG [C13A G33U U43G C46G],0.01
7,GGCAGAGCUCAAAACAUCGUGGUAAAGUGACUGUGGCUAGACUGCC [C13A G17U C23U G30A],0.09
8,GGCAGAGCUCAAAACAGCGUGGCUAAGUGGCUGUGGCUAGAGUGUC [C13A A24U C42G C45U],0.02
9,GGCAGAGCUCAAAACAGCGUUGCAAAGUGGGUGUGGCUAGACUGCC [C13A G21U C31G],0.02
10,GGCAGAGCUCAAAACAGCGUGGCUAAGCGGCUGUGGCUAGACUGCC [C13A A24U U28C],0.1
11,GGCAGAGCUCAAAACAGGGUGUCAAAGUGGCUGUAGCUAGUCUGGC [C13A C18G G22U G35A A41U C45G],0.03
12,GGCAGAGCUCAAAACAGCGUGGCAAAGUGGCUGUGGUUAGACCGCC [C13A C37U U43C],0.38
13,GGCAGAGCUCAAAAAACCGUGGCAAAGUGGCUGUGGCUAGACUGCC [C13A C15A G17C],0.01
14,GGCAGAGCUCAAAACAGCGUGGUAAAGUGGCUGUGGCUAGACUGCU [C13A C23U C46U],0.04
15,GGCAGAGCUCAAAACAGCGUGGCAAAGUGGCUGUGGUUAUUCUGCC [C13A C37U G40U A41U],0.2
16,GGCAGAGCUCAAAACAGCAGGGCAAAGUGGCUGUGGCUAGAGUGCC [C13A G19A U20G C42G],0.03
17,GGCAGAGCUCAAAACAGCAUGGCAAAGUGGCUGUGGCUAGACUGCG [C13A G19A C46G],0.04
18,GGCAGAGCUCAAAACAGCGUGGCAAAGAUGCUGUGGUUAGAGUCCC [C13A U28A G29U C37U C42G G44C],0.08
19,GGCAGAGCUCAAAACAGUGAGGCAAAGUGGCUGUGGCUAGACUGCC [C13A C18U U20A],0.01

row,Variant,self-cleavage
1,GGCAGAGCUCAAAACAGCGUGGUAAAGGGGCUGUGGCUAGACUGCC [C13A C23U U28G],0.02
2,GGCAGAGCUCAAAACAUCGUGGCAAAGUGGCUGCGGCUAGACUGCC [C13A G17U U34C],0.21
3,GGCAGAGCUCAAAACAGCGUGACAAACUGUCUGUGGCUAGACUUCC [C13A G22A G27C G30U G44U],0.04
4,GGCAGAGCUCAAAACAGCGUGAUAAAGUGGCUGUGGCUAGACUGCC [C13A G22A C23U],0.09
5,GGCAGAGCUCAAAACAGGCUGGCAAAGUGGCUGUGGCUUGACUGCC [C13A C18G G19C A39U],0.01
6,GGCAGAGCUCAAAACAGCGUGUCAAAGUGAUUAUGGCUAGACUGCC [C13A G22U G30A C31U G33A],0.03
7,GGCAGAGCUCAAAACAGCGAGGCAAAUUGGCUCUGGCUACACUGCA [C13A U20A G27U G33C G40C C46A],0.02
8,GGCAGAGCUCAAAACAGCGUGGCAAAGUGGCUGUGGCUAUAGUGCC [C13A G40U C42G],0.14
9,GGCAGAGCUCAAAACACCGUGGCAAAGUGGAUGUGGCUAAACUGCC [C13A G17C C31A G40A],0.01
10,GGCAGAGCUCAAAACAACGUGGCAAAGUGGCUUUGGCUAGACUGCC [C13A G17A G33U],0.01
11,GGCAGAGCUCAAAACAGAGUGGCAAAGUGACUGUGGUUAGACUGCC [C13A C18A G30A C37U],0.09
12,GGCAGAGCUCAAAACAGCGUGGCAAAGUGGCUGUGGCUAUACUUUC [C13A G40U G44U C45U],0.11
13,GGCAGAGCUCAAAACAGCGUGGCAAAGUGGCUAUGGCUAGACUGGC [C13A G33A C45G],0.11
14,GGCAGAGCUCAAAACAGCGUGGCAAUGUGGCUGUGGCAAGACUGCC [C13A A26U U38A],0.01
15,GGCAGAGCUCAAAACAACGUGGCAGAGUGGCUGUUCCUAGGCUGCC [C13A G17A A25G G35U G36C A41G],0.01
16,GGCAGAGCUCAAAAAAGCGUGGCAAAAUGACAGUGGCUAGACUGCC [C13A C15A G27A G30A U32A],0.07
17,GGCAGAGCUCAAAACAGCGAGGCCAAGUGGAUGUGGCUAGUCUGUC [C13A U20A A24C C31A A41U C45U],0
18,GGCAGAGCUCAAAACAGCGUGGCAAAGUGGAGGUGUCUAGACUGCC [C13A C31A U32G G36U],0.02
